# Measurements: PubChem BioAssay AID1508642 (National Center for Advancing Translational Sciences (NCATS), 2021)
# The campaign covered roughly 43,000 compounds. About 200 (0.47%) were called active. Not shown: some 12% with an inconclusive outcome. The call rests on the fitted dose curve; in most records, active means well fitted cell-killing curve with a large enough effect; inconclusive means small, poorly fitted or top-dose-only effect, or effect the other way; inactive means flat fitted curve, though single readings scatter. This is one part of the list.
# Experiment: Cell viability qHTS assay in S16 Pmp22-F2sN cells; further: nearly all actives have a fitted effect of over 65% in size
# Conditions: S16 Pmp22-F2sN Schwann cells (luciferase reporters placed in the Pmp22 gene) viability, CellTiter-Glo, 24 h; series mostly up to 57.5 µM; activity change, negative = cytotoxicity: at the top concentration
# Summary of the method: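 Rat S16 Schwann reporter line, 24 h treatment with library compounds delivered at 23 nL per well. Cell viability by CellTiter-Glo luminescence.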
# On the % scale 0 is the no-effect control and ±100 the full control effect.
row,SMILES,"activity change, negative = cytotoxicity"
1,Cc1nn2c(=O)cc(COC(=O)COc3ccccc3C)nc2s1,inactive: -5.75%
2,O=C(O)C1=CC(c2ccc(Br)cc2)n2ncnc2N1 (stereo not drawn),inactive: 19.4%
3,CCOC(=O)Cn1cnc2c(cnn2-c2ccc(C)c(C)c2)c1=O,inactive: 2.95%
4,Cc1ccccc1C(=O)NCc1ccc2c(c1)CCN2C(=O)c1ccc(F)cc1,inactive: 7.21%
5,CC1CCC(NC(=O)CCc2cn(Cc3ccc(F)cc3)c3ccccc23)CC1 (stereo not drawn),inactive: 0.631%
6,COc1ccccc1CNC(=O)c1cc(-c2ccccc2)n[nH]1,inactive: -14.1%
7,Cn1c2ccc(F)cc2c2nnc(SCCN3CCCCC3)nc21,inactive: 9.32%
8,CC(C)NC(=O)c1sc2ncccc2c1-n1cccc1,inactive: -1.79%
9,CCc1ccc(S(=O)(=O)c2cnc(SCC(=O)Nc3ccc(OC)cc3OC)[nH]c2=O)cc1,inactive: 1.89%
10,Cc1ccc2nc(NC(=O)CSc3ncc(C(=O)Nc4ccccc4)c(=O)n3C)sc2c1,inactive: 9.71%
11,CCCCC(=O)Nc1ccc(OCc2cc(=O)n3ccc(C)cc3n2)cc1,inactive: 15.7%
12,CCCCN(CCCC)c1nc(-c2ccccc2)nc2ccccc12,inactive: -2.97%
13,COc1cc(C2CC(=O)Nc3cc4c(cc32)OCCO4)cc(OC)c1O (stereo not drawn),inactive: 1.29%
14,COc1ccc(NC(=O)C2CCCN2S(=O)(=O)c2ccc3c(c2)CCCC(=O)N3)cc1Cl (stereo not drawn),inactive: 24.5%
15,Cc1oc(-c2cccc(Cl)c2)nc1CSCC(=O)O,inactive: -2.33%
16,CCC(=O)Nc1ccc(C)cc1-c1nc2ccccc2n(Cc2ccccc2)c1=O,inactive: 21.4%
17,CCN(C(=O)c1cc2c(Cl)nc3ccc(C)cc3c2s1)c1cc(OC)ccc1OC,inactive: -14.4%
18,CC1(c2ccccc2)CC(C)(C)N(C(=O)c2ccccc2Cl)c2ccccc21 (stereo not drawn),inactive: -4.59%
19,Cc1cccc(-c2nnc(SCCC(=O)O)o2)c1,inactive: -6.26%
20,CCOC(=O)c1[nH]c(C)c(C(=O)NCc2ccc(F)cc2)c1C,inactive: -4.89%
21,COc1cc(CNCCSc2nnnn2C)ccc1OCc1c(F)cccc1Cl,inactive: -10.8%
22,CC(C)c1ccc(OCC(=O)Nc2cc(-c3nc4ncccc4o3)ccc2Cl)cc1,inactive: 21%
23,O=[N+]([O-])c1ccc(C(c2sc3nc(-c4ccco4)nn3c2O)N2CCC3(CC2)OCCO3)cc1 (stereo not drawn),inactive: 6.11%
24,COc1ccccc1CNC(=O)C(C)n1c(=O)cc(C(F)(F)F)c2c(C)nn(C)c21 (stereo not drawn),inactive: -10.1%
25,CCOc1ccc(CCNC(=O)c2cnc3c(-c4ccccc4)c(C)nn3c2C)cc1OCC,inactive: -12.7%

row,SMILES,"activity change, negative = cytotoxicity"
1,Cc1cccc(NC(=O)CN2C(=O)CCc3ccccc32)c1C,inactive: 4.96%
2,COc1ccc(N2CCN(c3oc(/C=C/c4cccc(OC)c4)nc3C#N)CC2)cc1,inactive: 0.224%
3,CCc1ccc(CNC(=O)C2CCN(c3nnc(-n4c(C)ccc4C)s3)CC2)cc1,inactive: 13.2%
4,Cc1ccc(OCC(=O)Nc2ccc(-c3nc4ccc(C)cc4o3)cc2)cc1,inactive: 5.95%
5,CCOc1ccc(C(=O)Nc2ccc3nc(SCC(=O)N4CCOCC4)sc3c2)cc1,inactive: 2.51%
6,CCN1CCN(C(=O)c2ccc3c(c2)N(Cc2cc(C)ccc2C)C(=O)c2ccccc2S3(=O)=O)CC1,inactive: 5.57%
7,N#Cc1ccccc1NC(=O)C(=O)NCC(c1cccnc1)N1CCN(c2ccccc2)CC1 (stereo not drawn),inactive: -9.52%
8,Cc1cccc(C(=O)Nc2cccc(C(=O)OCc3cc(=O)n4nc(C5CC5)sc4n3)c2)c1,inactive: 6.18%
9,Cc1cc(NC(=O)CN(c2cccc(C)c2C)S(=O)(=O)c2ccccc2)ccc1Br,inactive: -1.73%
10,O=C(Nc1ccc(F)cc1F)C1CCCN1S(=O)(=O)c1cccc2nsnc12 (stereo not drawn),inactive: 4.72%
11,CCCOc1ccc(CNC(=O)C2CCN(c3nn4c(=O)cc(C)nc4s3)CC2)cc1,inactive: 6.86%
12,CCOc1ccccc1Nc1ccc2cc(S(=O)(=O)N3CCCCC3)ccc2n1,inactive: -26.1%
13,CCOC(=O)c1c(C)oc2nc(C)nc(NCCc3ccc(S(N)(=O)=O)cc3)c12,inactive: -19.9%
14,O=C(NCCc1ccccc1)c1cnc2sc(N3CCOCC3)nn2c1=O,inactive: -2.65%
15,CCCSCCCNC(=O)CN1C(=O)COc2ccc(S(=O)(=O)N3CCCCCC3)cc21,inactive: 10.5%
16,CCc1cccc(C)c1NS(=O)(=O)c1ccc(-n2cccn2)cc1,inactive: 3%
17,CC(=O)N1CCCc2cc(S(=O)(=O)NCc3ccc(OC(C)C)cc3)ccc21,inactive: -28.8%
18,COc1ccc(-c2nn(-c3ccc(F)cc3F)c3c2cnc2ccc(F)cc23)cc1,inactive: 7.91%
19,CC(NC(=O)c1cc2sccc2n1Cc1ccc(F)cc1)c1ccccc1 (stereo not drawn),inactive: 12.9%
20,COc1ccc(C(=O)Nc2ccc(-c3cc(C(F)(F)F)nn3-c3ccccc3)cc2)cc1OC,inactive: -12.9%
21,Cc1ccc(-n2c(=O)c3ccccc3n(CC(=O)Nc3cccc(C(F)(F)F)c3)c2=O)cc1,inactive: -17.9%
22,O=C(c1ccccc1)N1CCCCC1CCN1CCCCC1 (stereo not drawn),inactive: 16.3%
23,O=C(Nc1ccc2nc(SCC(=O)N3CCOCC3)sc2c1)c1ccc(Cl)cc1,inactive: -3.89%
24,CCN(Cc1ccccc1)C(=O)C(CC(C)C)NS(=O)(=O)c1ccc2c(c1)CCN2C(C)=O (stereo not drawn),inactive: -4.21%
25,COc1cccc(N2CCN(c3ncnc4onc(-c5ccc(Cl)cc5)c34)CC2)c1,inactive: 6.51%

row,SMILES,"activity change, negative = cytotoxicity"
1,N#C/C(=C\c1ccc(Cl)cc1)c1nc(-c2cc3c(ccc4ccccc43)oc2=O)cs1,inactive: 20.1%
2,O=C(Cn1c(=O)n(-c2ccccc2)c(=O)c2sc3ccccc3c21)NC1CCCC1,inactive: 4.94%
3,CN(C)c1ccc(CNC(=O)c2sc3ncccc3c2-n2cccc2)cc1,inactive: -0.609%
4,Cc1cc(C)cc(NC(=O)CCN2C(=O)c3ccccc3Sc3ncccc32)c1,inactive: 4.02%
5,CSc1ccc(CNC(=O)Cn2ccc3cc(S(=O)(=O)N4CCCC4)ccc32)cc1,inactive: -1.79%
6,COc1ccccc1CNC(=O)CS(=O)(=O)Cc1nc(-c2ccccc2C)oc1C,inactive: 25.6%
7,CN(C)c1ccc(C(=O)NCc2ccc3c(c2)CCN3C(=O)c2ccccc2)cc1,inactive: -27.7%
8,CC(C)CCNC(=O)CSc1nc2ccccc2nc1Cc1ccc(Cl)cc1,inactive: 8.3%
9,COCCn1c(C)cc(O)c(C(c2ccc(Cl)cc2)N2CCCCC2)c1=O (stereo not drawn),inactive: 3.88%
10,Cc1cc(C)c(NC(=O)CN2C(=O)CCSc3ccc(S(=O)(=O)N4CCCC4)cc32)c(C)c1,inactive: 1.08%
11,COc1cccc(CNC(=O)CN2C(=O)CSc3ccc(S(=O)(=O)N4CCCC4)cc32)c1,inactive: -1.68%
12,COc1ccc(C2C(=O)N(C3CCCCC3)CC(=O)N2C2CCCCC2)cc1 (stereo not drawn),inactive: 10.6%
13,Cc1ccc(-c2cc(C(F)(F)F)c(C#N)c(SCC(=O)Nc3ccccc3F)n2)cc1,inactive: -8.21%
14,CCN(c1ncnc2c1cnn2-c1cccc(Cl)c1)C1CCCCC1,inactive: 15.8%
15,O=C(Nc1ccc2nc(SCC(=O)N3CCOCC3)sc2c1)c1ccccc1Cl,inactive: -1.37%
16,Cc1cccc(OCC(=O)Nc2ccccc2OCc2cc(=O)n3cc(C)ccc3n2)c1,inactive: 6.27%
17,CCn1ccc2cc(S(=O)(=O)N3CCC(C(=O)NCc4ccc(F)cc4)CC3)ccc21,inactive: 11%
18,Cc1ccc(NCc2cccn2-c2nnc(N3CCC(C(=O)NCc4ccc(F)cc4)CC3)s2)cc1,inactive: -24.2%
19,Cc1ccn2c(Nc3ccccc3C)c(-c3ccccc3)nc2c1,inactive: -12.7%
20,COc1cccc(NC(=O)Cn2c(=O)n(Cc3ccco3)c(=O)c3cc(OC)c(OC)cc32)c1,inactive: 13.5%
21,O=C(Cn1c(=O)n2nc(-c3cccc(F)c3)nc2c2ccccc21)NCc1ccc(Cl)cc1,inactive: 0.956%
22,Cc1ccccc1NC(=O)c1c(NC(=O)c2cccs2)sc2c1CCC(C)C2 (stereo not drawn),inactive: -1.7%
23,O=C(Nc1ccc2nn(-c3ccc(Cl)cc3)nc2c1)c1cc2ccccc2o1,inactive: -2%
24,N#Cc1nc(/C=C/c2ccc(F)cc2)oc1NC1CCCCC1,inactive: 5.3%
25,CCc1cccc(C)c1NS(=O)(=O)c1ccc(-c2cc(C)no2)s1,inactive: -3.43%

row,SMILES,"activity change, negative = cytotoxicity"
1,Cc1cccc(NC(=O)c2c(N)sc3c2CCC(C)C3)c1 (stereo not drawn),inactive: 4.57%
2,CCOC(=O)c1cc(-c2ccccc2)n(CCC(=O)NCCc2ccc(OC)c(OC)c2)c1C,inactive: -11.7%
3,COc1ccc(-c2nc3cc(NC(=O)c4cc5ccccc5o4)ccc3o2)cc1,inactive: 4.02%
4,COc1ccc(N(C)C(=O)C2CCN(S(=O)(=O)c3cc(Br)cc4c3N(C(C)=O)CC4)CC2)cc1,inactive: -15.5%
5,Cc1ccc(OCc2cc(=O)n3ccsc3n2)c(NC(=O)c2ccco2)c1,inactive: -0.252%
6,CCOc1ccc(NC(=O)CC2C(=O)N(c3ccc(C)cc3)C(=O)N2Cc2ccc(OC)cc2)cc1 (stereo not drawn),inactive: -5.53%
7,COc1ccc(OC)c(NC(=O)N(C)CCc2c(C)nn(C)c2C)c1,inactive: -3.16%
8,CCC(=O)N1CCc2cc(Br)cc(S(=O)(=O)N(CC)Cc3ccccc3)c21,inactive: 18.9%
9,CCOc1ccc(NC(=O)c2c(NC(=O)c3ccccc3Br)sc3c2CCC(C)C3)cc1 (stereo not drawn),inactive: 7.44%
10,CCCCN(C)S(=O)(=O)c1cc(-c2cc(C)no2)ccc1C,inactive: -10.4%
11,CCOc1ccc(S(=O)(=O)NCC(c2ccc(N(C)C)cc2)N2CCc3ccccc32)cc1 (stereo not drawn),inactive: 6.24%
12,Cc1cc(-c2nc3ncccc3o2)ccc1NC(=O)c1ccc(Cl)cc1,inactive: 0.337%
13,COC(=O)CSc1ccc2nnc(CCNS(=O)(=O)c3ccccc3)n2n1,inactive: -2.27%
14,CCc1cccc(C)c1NC(=O)c1cn2c3c(ccc(Cl)c3c1=O)OC(C)C2 (stereo not drawn),inactive: -5.05%
15,Cc1ccc(-c2nc3ncccc3o2)cc1NC(=O)c1ccc(-c2cccc(Cl)c2C)o1,inactive: 13.4%
16,Cc1nc(-c2cccc(F)c2)sc1CCNC(=O)C(=O)Nc1ccc2c(c1)OCO2,inactive: 5.57%
17,CCc1ccc(N2CCn3c2nc2c3c(=O)n(CCCc3ccccc3)c(=O)n2C)cc1,inactive: -0.465%
18,CCOc1ccc(-c2nonc2NC(=O)COc2ccccc2)cc1,inactive: -6.34%
19,CCCc1cnc2c(c1SCC(=O)Nc1cccc(C)c1C)c(=O)n(C)c(=O)n2C,inactive: 10%
20,COc1ccc(CNC(=O)CN(c2ccc(OC)cc2)S(=O)(=O)c2c(C)[nH]c(=O)[nH]c2=O)cc1,inactive: -8.33%
21,Cc1ccc(-n2c(-c3ccco3)nc3c(cnn3-c3ccc(C)cc3)c2=O)cc1,inactive: 15.9%
22,Cc1cc(C)cc(OCCn2c(CCNC(=O)C3CCCCC3)nc3ccccc32)c1,inactive: -0.0873%
23,O=C(Cc1ccccc1F)N1CCC(c2nc3c(nnn3Cc3cccc(Cl)c3)c(=O)[nH]2)CC1,inactive: -29.3%
